# In all, about 240,000 compounds went through this assay and about 20 (0.008%) were called active. The shares of active, inactive and inconclusive entries below differ from those in the screen. Calls follow the shape of the dose curve; as a rule, active = well fitted inhibition curve with a large enough effect; inconclusive = small, poorly fitted or top-dose-only effect, or effect the other way; inactive = flat fitted curve, though single readings scatter. Potencies of inconclusive entries are left out as doubtful fits.
# Biological target: Alpha-galactosidase A (Homo sapiens) (UniProt P06280)
# Sequence of UniProt P06280 (P06280 whole entry, looked up): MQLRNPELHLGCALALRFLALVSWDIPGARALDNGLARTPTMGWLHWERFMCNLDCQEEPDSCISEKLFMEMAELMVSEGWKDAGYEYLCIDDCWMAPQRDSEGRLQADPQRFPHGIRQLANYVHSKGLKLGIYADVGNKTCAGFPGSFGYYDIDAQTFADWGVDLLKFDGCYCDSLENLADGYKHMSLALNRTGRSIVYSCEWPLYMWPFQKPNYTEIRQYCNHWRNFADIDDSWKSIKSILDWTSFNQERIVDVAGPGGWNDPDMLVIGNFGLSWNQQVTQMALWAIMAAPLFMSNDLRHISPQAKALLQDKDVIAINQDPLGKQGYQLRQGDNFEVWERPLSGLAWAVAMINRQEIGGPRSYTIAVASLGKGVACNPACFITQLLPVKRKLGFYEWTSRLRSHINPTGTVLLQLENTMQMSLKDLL
# Experiment: qHTS Assay for Inhibitors and Activators of Human alpha-Galactosidase From Spleen Homogenate;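 as to activity change, negative = inhibition: 0% = enzyme with vehicle and -100% = no enzyme basal signal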
# Conditions: 4MU-alpha-Gal fluorescence, 40 min; activity change, negative = inhibition: at 80 µM (top of the series)
# Method in brief: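 Human spleen homogenate (1 ug) was the enzyme source, with 4-methylumbelliferyl-alpha-D-galactopyranoside (1 mM final) in pH 5.0 citrate buffer with 0.01% Tween-20. Compounds were titrated; after 40 min at 37C, NaOH/glycine stop, 4-MU fluorescence read; AC50 from Hill fits.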
# Potency is read from the fitted curve at half-maximal effect; tags tell the direction and shape of the fitted curve.
SMILES,Potency,"activity change, negative = inhibition"
COC(=O)c1cc(C(=O)OC)cc(N2C(=O)CC(Sc3nc(C)cc(C)n3)C2=O)c1 (stereo not given),"inconclusive [inhibitor, single point]",
CC1(C)CC(=O)c2cc(OCC(=O)N3CCOCC3)ccc2O1,"inconclusive [activator, single point]",
CCOc1cccc(N(C(=O)C2COc3ccccc3O2)C(C(=O)NC2CCCCC2)c2ccc(O)cc2)c1 (stereo not given),"inconclusive [inhibitor, single point]",
CCOc1ccc(NC(=O)C2CC(=O)NC(N3CCc4ccccc43)=N2)cc1 (stereo not given),"inconclusive [activator, full curve, poor fit]",
COc1ccc(CN(C(=O)c2nsc(Cl)c2Cl)C(C(=O)NC2CCCC2)c2ccc(C)cc2)cc1 (stereo not given),,inactive: 8.52%
Fc1ccc(N2N=C(c3cccs3)CC2c2ccco2)c(F)c1 (stereo not given),"inconclusive [activator, partial curve]",
C=CCn1cc(C(=O)OC)c(=O)c2cc(S(=O)(=O)N3CCCCCC3)ccc21,,inactive: 0.999%
CCOC(=O)c1cc2c(=O)n3ccccc3nc2n(CCOC)c1=NC(=O)C(C)(C)C,"inconclusive [activator, full curve]",
O=C(O)c1cc(O)c2c(c1)[C@H]([C@H]1c3cc(C(=O)O)cc(O)c3C(=O)c3c(O[C@@H]4OC(CO)C(O)C(O)C4O)cccc31)c1cccc(O[C@@H]3OC(CO)C(O)C(O)C3O)c1C2=O (stereo not given in full),"inconclusive [inhibitor, partial curve]",
CCS(=O)(=O)N1Cc2ccccc2CC1C(=O)Nc1ccc(NC(C)=O)cc1 (stereo not given),"inconclusive [inhibitor, partial curve]",
Nc1c(Cl)cc(Cl)cc1Cl,,inactive: 4.54%
COc1ccc(-c2cc(=O)c3ccccc3o2)cc1,"inconclusive [activator, single point]",
O=C(CCc1nnc(CCCCc2ccccc2)o1)NCCn1cccn1,,inactive: -5.47%
CCc1c2c(nc3cccc(C(C)C)c13)-c1cccc(=O)n1C2,"inconclusive [activator, partial curve]",
COCCCn1c(=N)c(C(=O)NC2CCCCC2)cc2c(=O)n3ccccc3nc21,"inconclusive [activator, partial curve]",
COc1cc(=O)n(C)c2cc(N(C)C)ccc12,"inconclusive [activator, single point]",
Clc1cccc(Cl)c1CNC1CCCC1,"inconclusive [inhibitor, single point]",
CCCOc1ccc2cc(-c3ccccn3)c(=O)oc2c1,"inconclusive [activator, single point]",
OC[C@@H]1[C@@H](c2ccc(Cl)cc2)C(c2ccccc2)=NN1c1ccccc1,"inconclusive [activator, partial curve]",
Clc1ccc(Nc2ncnc3ccc(Br)cc23)cc1,"inconclusive [inhibitor, partial curve]",
Cc1cc(NS(=O)(=O)c2ccc(NC(=S)NC(=O)c3ccc(Br)cc3)cc2)no1,"inconclusive [inhibitor, full curve, poor fit]",
COc1ccc(N(C(=O)/C=C/c2ccccc2)C2=CC3CCC(C2)N3C)cc1 (stereo not given),"inconclusive [inhibitor, single point]",

SMILES,Potency,"activity change, negative = inhibition"
COCCn1nnnc1CN(Cc1cc2cc(OC)c(OC)cc2[nH]c1=O)C1CCCC1,"inconclusive [activator, partial curve]",
COCCN(CCOC)S(=O)(=O)c1ccc(C(=O)Nc2nc(-c3ccccc3)c(C(=O)c3ccccc3)s2)cc1,,inactive: -3.22%
CCOC(=O)c1c(NC(=O)CCc2ccc(CC)o2)sc(C)c1C,,inactive: -0.771%
O=C(NC(=S)Nc1ccc(S(=O)(=O)Nc2ncccn2)cc1)c1cccc(Br)c1,"inconclusive [inhibitor, full curve, poor fit]",
CC(=O)Oc1ccc2c(C)c(CC(C)O)c(=O)oc2c1 (stereo not given),"inconclusive [activator, partial curve]",
O=C(COC(=O)c1ccc(N2CCCC2=O)cc1)NCc1ccco1,"inconclusive [inhibitor, single point]",
O=C(CSc1ncccn1)NC(=O)NCc1ccccc1,"inconclusive [inhibitor, partial curve, poor fit]",
CC(C)(C)c1ccc(S(=O)(=O)N2CCCCC2C(=O)NCc2ccccn2)cc1 (stereo not given),"inconclusive [activator, full curve]",
Cc1ccc(F)c(NC(=O)C2CCCCC2C(=O)O)c1 (stereo not given),"inconclusive [inhibitor, partial curve]",
c1ccc(N2N=C(c3cccs3)CC2c2ccco2)cc1 (stereo not given),"inconclusive [activator, partial curve]",
CCNc1cc2oc(=O)c(CN3CCOCC3)c(C)c2cc1C,"inconclusive [activator, partial curve]",
COc1ccccc1-c1ccc(/C=C2/C=C(CC(C)C)OC2=O)o1,"inconclusive [activator, single point]",
Nc1ccc(-c2nc3ccc(N)cc3o2)cc1,"inconclusive [activator, partial curve]",
C=CCOC(=O)C(=O)/C=C/c1c(C)n(C)n(-c2ccccc2)c1=O,,inactive: 0.856%
COc1ccc(Cl)cc1N1CC(c2nc3ccccc3[nH]2)CC1=O (stereo not given),"inconclusive [inhibitor, partial curve]",
O=C(NCC1CCCO1)c1coc2nc3ccccc3nc12 (stereo not given),"inconclusive [activator, partial curve]",
COC(=O)C1=CN(Cc2ccc(OC)c(OC)c2)C=C(C(=O)OC)C1c1cccs1,"inconclusive [activator, single point]",
O=C(/C=C/c1ccc(O)c(O)c1)NC(=O)c1ccccc1O,,inactive: 10.5%
O=C(CSC1=Nc2ccccc2C2=NC(CC(=O)NCc3ccco3)C(=O)N12)NCC1CCCO1 (stereo not given),"inconclusive [activator, single point]",
Cc1ccc(C(=O)C(NC(=O)c2ccco2)Nc2sc3c(c2C(N)=O)CCCC3)cc1 (stereo not given),,inactive: -2.58%
CC1CCCC(C)N1C(=O)COC(=O)c1cc(Br)ccc1Cl (stereo not given),,inactive: -6.72%
COc1ccc(C(NC(=O)/C=C/c2ccco2)c2ccc(OC)cc2)cc1,"inconclusive [inhibitor, partial curve]",

SMILES,Potency,"activity change, negative = inhibition"
CCc1nc2c(oc3ccccc32)c(=O)[nH]1,"inconclusive [inhibitor, partial curve, poor fit]",
CN1CCN(CC(O)COc2ccc(OCC(O)CN3CCN(C)CC3)cc2)CC1 (stereo not given),"inconclusive [inhibitor, single point]",
O=C(c1cccc2ccccc12)C1CCCN(C(=O)CCCn2cncn2)C1 (stereo not given),,inactive: -0.587%
Cc1[nH]c2ccccc2c1C(=O)CSC(=S)N(C)C1CCCCC1,,inactive: -9.1%
COc1cc2cc(Oc3ccc4ccc(=O)oc4c3)c(=O)oc2cc1OC1OC(COC(=O)CC(C)(O)CC(=O)O)C(O)C(O)C1O (stereo not given),"inconclusive [activator, single point]",
COc1ccc(Cn2c(=O)[nH]c3cc(C(=O)NCCCN4CCCCC4)ccc3c2=O)cc1,"inconclusive [activator, partial curve]",
CCOc1cc(C(=O)Nc2ncccn2)cc(OCC)c1OCC,"inconclusive [activator, full curve, poor fit]",
O=C(NC1CC1)c1cc2c(s1)-c1ccccc1OC2,"inconclusive [activator, partial curve]",
COc1ncc2nc(-c3ccc(F)cc3)c(=O)n(CCC#N)c2n1,"inconclusive [activator, single point]",
COc1ccc(NC(=O)C2CCN(C(=O)NCc3ccccc3)CC2)cc1,"inconclusive [inhibitor, single point]",
COc1ccc(CN(C(=O)c2nsc(Cl)c2Cl)C(C(=O)NC2CCCCC2)c2ccc(OC)cc2)cc1 (stereo not given),,inactive: 3.92%
COc1ccc(OC)c(/C=C/C(=O)N(C)CC(=O)Nc2ccc(C)cc2)c1,"inconclusive [activator, full curve]",
COc1ccc2[nH]cc(CCNS(=O)(=O)c3ccc(C)cc3)c2c1,,inactive: 5.64%
COc1ccc(OC)c(N=c2oc3cc(O)ccc3cc2C(N)=O)c1,"inconclusive [activator, single point]",
COc1ccc2[nH]cc(CCNc3ncncc3-c3ccoc3)c2c1,"inconclusive [inhibitor, single point]",
CC(=O)N1CCC2(CC1)CC(=O)c1cc(OCC(=O)N3CCOCC3)ccc1O2,"inconclusive [activator, single point]",
CCCOc1ccccc1C1C(C(=O)OC)=CN(C(C)C)C=C1C(=O)OC,"inconclusive [activator, partial curve]",
COc1ccc(OC)c(-n2c(N)c(C(=O)NCC3CCCO3)c3nc4ccccc4nc32)c1 (stereo not given),"inconclusive [activator, single point]",
O=C(COC(=O)c1cnc(Cl)c(Cl)c1)NCc1ccc2c(c1)OCO2,,inactive: 0.604%
CS(=O)(=O)Nc1ccc([N+](=O)[O-])cc1Oc1ccccc1,"inconclusive [inhibitor, full curve, poor fit]",
COc1ccc2cc(C#N)c(=O)oc2c1,"inconclusive [activator, partial curve]",
